# Data reported in the supplement of paper PMC8728848.
# The list shows a part of the results.
# B1: AAA (Anguilla anguilla), Q7SIC1 (protein)
# chain: VIPEGYTQENVAVRGKATQSAQLRGEHAANSEASNAIDGNRDSNFYHGSCTHSSGQANPWWRVDLLQVYTITSVTITNRGDCCGERISGAEINIGQHLASNGVNNPECSVIGSMATGETKTFHCPAPMIGRYVVTYLPTSESLHLCEVEVNVDKPAAA
# Columns and labels:
# Experiment in all cases: glycan array binding signal (z-score within array); higher = stronger binding
# Details in all cases: glycan notation: IUPAC condensed, linker removed
# Fuc(a1-2)Gal = target: Fuc(a1-2)Gal
# Summary of the method: (§1)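 Glycan array data came from 3228 arrays in the Consortium for Functional Glycomics database, and only arrays with an available protein sequence were kept. Glycan names were put into IUPAC-condensed notation, and columns mapping to the same glycan were averaged. The binding signal is a within-array Z-score, averaged across arrays of one protein sequence run at different concentrations or buffers and across linkers. A negative Z-score can be read as non-binding.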
# Fuc(a1-2)Gal(b1-3)GalNAc = target: Fuc(a1-2)Gal(b1-3)GalNAc
# Summary of the method: as §1
# [1] = target: Fuc(a1-2)Gal(b1-3)GalNAc(a1-3)[Fuc(a1-2)]Gal(b1-4)Glc
# Summary of the method: as §1
# [2] = target: Fuc(a1-2)Gal(b1-3)GalNAc(a1-3)[Fuc(a1-2)]Gal(b1-4)GlcNAc
# Summary of the method: as §1
# [3] = target: Fuc(a1-2)Gal(b1-3)GalNAc(b1-3)Gal
# Summary of the method: as §1
# [4] = target: Fuc(a1-2)Gal(b1-3)GalNAc(b1-3)Gal(a1-4)Gal(b1-4)Glc
# Summary of the method: as §1
# [5] = target: Fuc(a1-2)Gal(b1-3)GalNAc(b1-3)Gal(b1-4)Glc
# Summary of the method: as §1
# [6] = target: Fuc(a1-2)Gal(b1-3)GalNAc(b1-4)[Neu5Ac(a2-3)]Gal(b1-4)Glc
# Summary of the method: as §1
# Fuc(a1-2)Gal(b1-3)GlcNAc = target: Fuc(a1-2)Gal(b1-3)GlcNAc
# Summary of the method: as §1
# [7] = target: Fuc(a1-2)Gal(b1-3)GlcNAc(b1-2)Man(a1-3)[Fuc(a1-2)Gal(b1-3)GlcNAc(b1-2)Man(a1-6)]Man(b1-4)GlcNAc(b1-4)GlcNAc
# Summary of the method: as §1
# [8] = target: Fuc(a1-2)Gal(b1-3)GlcNAc(b1-2)Man(a1-3)[Fuc(a1-2)Gal(b1-3)GlcNAc(b1-2)Man(a1-6)]Man(b1-4)GlcNAc(b1-4)[Fuc(a1-6)]GlcNAc
# Summary of the method: as §1
# [9] = target: Fuc(a1-2)Gal(b1-3)GlcNAc(b1-3)Gal(b1-4)Glc
# Summary of the method: as §1
# [10] = target: Fuc(a1-2)Gal(b1-3)GlcNAc(b1-3)GalNAc
# Summary of the method: as §1
# [11] = target: Fuc(a1-2)Gal(b1-3)GlcNAc(b1-3)[Fuc(a1-2)Gal(b1-3)GlcNAc(b1-6)]GalNAc
# Summary of the method: as §1
# [12] = target: Fuc(a1-2)Gal(b1-3)GlcNAc(b1-3)[Gal(b1-4)GlcNAc(b1-6)]Gal(b1-4)Glc
# Summary of the method: as §1
# [13] = target: Fuc(a1-2)Gal(b1-3)GlcNAc(b1-3)[Neu5Ac(a2-6)Gal(b1-4)GlcNAc(b1-6)]Gal(b1-4)Glc
# Summary of the method: as §1
# [14] = target: Fuc(a1-2)Gal(b1-3)GlcNAc6S
# Summary of the method: as §1
# [15] = target: Fuc(a1-2)Gal(b1-3)[Fuc(a1-4)]GlcNAc
# Summary of the method: as §1
# [16] = target: Fuc(a1-2)Gal(b1-3)[Fuc(a1-4)]GlcNAc(b1-2)Man(a1-3)[Fuc(a1-2)Gal(b1-3)[Fuc(a1-4)]GlcNAc(b1-2)Man(a1-3)]Man(b1-4)GlcNAc(b1-4)GlcNAc
# Summary of the method: as §1
# [17] = target: Fuc(a1-2)Gal(b1-3)[Fuc(a1-4)]GlcNAc(b1-2)Man(a1-3)[Fuc(a1-2)Gal(b1-3)[Fuc(a1-4)]GlcNAc(b1-2)Man(a1-6)]Man(b1-4)GlcNAc(b1-4)[Fuc(a1-6)]GlcNAc(b1-4)[Fuc(a1-6)]GlcNAc
# Summary of the method: as §1
# [18] = target: Fuc(a1-2)Gal(b1-3)[Fuc(a1-4)]GlcNAc(b1-3)[Fuc(a1-3)[Gal(b1-4)]GlcNAc(b1-6)]Gal(b1-4)Glc
# Summary of the method: as §1
# [19] = target: Fuc(a1-2)Gal(b1-3)[Fuc(a1-4)]GlcNAc(b1-3)[Gal(b1-4)GlcNAc(b1-6)]Gal(b1-4)Glc
# Summary of the method: as §1
# [20] = target: Fuc(a1-2)Gal(b1-4)Fuc(a1-3)]GlcNAc(b1-2)Man(a1-3)[Fuc(a1-2)Gal(b1-4)[Fuc(a1-3)]GlcNAc(b1-2)Man(a1-6)]Man(b1-4)GlcNAc(b1-4)GlcNAc
# Summary of the method: as §1
# Fuc(a1-2)Gal(b1-4)Glc = target: Fuc(a1-2)Gal(b1-4)Glc
# Summary of the method: as §1
# Fuc(a1-2)Gal(b1-4)Glc6S = target: Fuc(a1-2)Gal(b1-4)Glc6S
# Summary of the method: as §1
# Fuc(a1-2)Gal(b1-4)GlcNAc = target: Fuc(a1-2)Gal(b1-4)GlcNAc
# Summary of the method: as §1
# [21] = target: Fuc(a1-2)Gal(b1-4)GlcNAc(b1-2)Man
# Summary of the method: as §1
# [22] = target: Fuc(a1-2)Gal(b1-4)GlcNAc(b1-2)Man(a1-3)[Fuc(a1-2)Gal(b1-4)GlcNAc(b1-2)Man(a1-6)]Man(b1-4)GlcNAc(b1-4)GlcNAc
# Summary of the method: as §1
# [23] = target: Fuc(a1-2)Gal(b1-4)GlcNAc(b1-2)Man(a1-3)[Fuc(a1-2)Gal(b1-4)GlcNAc(b1-2)Man(a1-6)]Man(b1-4)GlcNAc(b1-4)[Fuc(a1-6)]GlcNAc
# Summary of the method: as §1
# [24] = target: Fuc(a1-2)Gal(b1-4)GlcNAc(b1-2)[Fuc(a1-2)Gal(b1-4)GlcNAc(b1-4)]Man(a1-3)[Fuc(a1-2)Gal(b1-4)GlcNAc(b1-2)Man(a1-6)]Man(b1-4)GlcNAc(b1-4)GlcNAc
# Summary of the method: as §1
binder,measurement,setting,value
B1,glycan array binding signal (z-score),Fuc(a1-2)Gal,-0.197
same,glycan array binding signal (z-score),Fuc(a1-2)Gal(b1-3)GalNAc,-0.173
same,glycan array binding signal (z-score),[1],-0.257
same,glycan array binding signal (z-score),[2],-0.219
same,glycan array binding signal (z-score),[3],-0.151
same,glycan array binding signal (z-score),[4],-0.106
same,glycan array binding signal (z-score),[5],0.014
same,glycan array binding signal (z-score),[6],-0.193
same,glycan array binding signal (z-score),Fuc(a1-2)Gal(b1-3)GlcNAc,-0.191
same,glycan array binding signal (z-score),[7],0.144
same,glycan array binding signal (z-score),[8],-0.117
same,glycan array binding signal (z-score),[9],-0.189
same,glycan array binding signal (z-score),[10],-0.193
same,glycan array binding signal (z-score),[11],-0.086
same,glycan array binding signal (z-score),[12],-0.272
same,glycan array binding signal (z-score),[13],-0.119
same,glycan array binding signal (z-score),[14],-0.115
same,glycan array binding signal (z-score),[15],-0.235
same,glycan array binding signal (z-score),[16],-0.013
same,glycan array binding signal (z-score),[17],-0.126
same,glycan array binding signal (z-score),[18],-0.222
same,glycan array binding signal (z-score),[19],-0.148
same,glycan array binding signal (z-score),[20],0.051
same,glycan array binding signal (z-score),Fuc(a1-2)Gal(b1-4)Glc,-0.111
same,glycan array binding signal (z-score),Fuc(a1-2)Gal(b1-4)Glc6S,0.203
same,glycan array binding signal (z-score),Fuc(a1-2)Gal(b1-4)GlcNAc,-0.268
same,glycan array binding signal (z-score),[21],-0.265
same,glycan array binding signal (z-score),[22],-0.052
same,glycan array binding signal (z-score),[23],-0.291
same,glycan array binding signal (z-score),[24],0.145
